The source gives no read counts; variants with many changes may rest on few reads.
B1: OR4K15 (parent)
chain: GUUAACGGUCAUAGGCCAUGGAAACUAGGAGCACCAUUUCGCUGCCAGUGAAGAAAUGAACAAAGAAAAUCUGGGCCAGGCAGGCAUCAAAAGAAAUAGUCUUGCGCUCAACCAGAAAGUCUGUAAUCAUUUUAAGGGUA

Variants of: B1
Assay: self-cleavage, relative activity (ratio to wild type); higher = more cleavage; in vitro, sequencing; the parent is a self-cleaving ribozyme

Variant	self-cleavage
GUUAACGGUCAUAGGCCAUGGAAACUAGGAGCACCAUUCCGCUGCCAGUGAAGAAAUGAACUAAGAAAGUCUGGGCCAGGCAGGCAUCAAAAGAAAUAGCCUUGCGCUCAACCAGAAAGUCUGUAAUCAUUUUAAGGGUA	2.84
GUUAACGGUCAUAGGCCAUGGAAACUAGGAGCACCAUUCCGCUGCCAGUGAAGAAAUGAACAAAGAAAAUCUGGGCCAGGCAGGCAUCUAAAGAAGUAGUCUUGCGCUCAACCAGAAAGUCUGUAAUCAUUUUAAGGGUA	2.34
GUUAACGGUCAUAGGCCAUGGAAACUAGGAGCACCAUUCCGCUGCCAGUGAAGAAAUGAACAAAGAAAAUCUGGGCCAGGCGGGCAUCAAAAGAAAUAGUCUUGCGCCCAACCAGAAAGUCUGUAAUCAUUUUAAGGGUA	0.02
GUUAACGGUCAUAGGCCAUGGAAACUAGGAGCACCAUUCCGCUGCCAGUGAAGAAAUGAACAAAGAAAAUCUGGGCCAGGCAGGCAUCAGAAGAAAUAGUCUUGCGCUCAACCUGAAAGUCUGUAAUCAUUUUAAGGGUA	0.08
GUUAACGGUCAUAGGCCAUGGAAACUAGGAGCACCAUUCCGCUGCCAGUGAAGAAAUGAACAAAGAGAAUCUGGGCCAGGCAGGCAUCAAAAGAAAUAGUCUUGCGCUCAACCAGAAAGUCUGUAAUCAUUUUAAAGGUA	1
GUUAACGGUCAUAGGCCAUGGAAACUAGGAGCACCAUUCCGCUGCCAGUGAAGAAAUGAACAAAGAAAAUCUGGGCCAGGCAGGCAUCAAAAGAAAUAGUCUUGCGCUCGUCCAGAAAGCCUGUAAUCAUUUUAAGGGUA	0
GUUAACGGUCAUAGGCCAUGGAAACUAGGAGCACCAUUCCGCUGCCAGUGAAGAAAUGAACAAGGAAAAUCUGGGCCAGGCAGGCAUCAAAAGAAAUAGUCUUGCGCUCAACCAGAAAGUCUGUAAUCGUUUUAAGGGUA	1.21
GUUAACGGUCAUAGGCCAUGGAAACUAGGAGCACCAUUCCGCUGCCAGUGAAGAAAUGAACAAAGAGAAUCUGGGCCUGGCAGGCAUCAAAAGGAGUAGUCUUGCGCUCAACCAGAAAGUCUGUAAUCAUUCUAAGGGUA	0.2
GUUAACGGUCAUAGGCCAUGGAAACUAGGAGCACCAUUCCGCUGCCAGUGAAGAAAUGAACAAGGAAGAUCUGGGCCAGGCAGGCAUCAAAAGAAAUAGUCUUGCGCUCAACCAGAAAGUCUGUAAUCAUUUUAAGGGUA	0.87
GUUAACGGUCAUAGGCCAUGGAAACUAGGAGCACCAUUCCGCUGCCAGUGAAGAAAUGAACAGAGAAAAUCUGGCCCAGGCAGGCACCAAAAGAAAUAGUCUUGCGCUCAGCCAGAAAGUCUGUAAUCAUUUUAAGGGUA	0.02
GUUAACGGUCAUAGGCCAUGGAAACUAGGAGCACCAUUCCGCUGCCAGUGAAGAAAUGAACUAAGAAAAUCUGGGCCAGGCAGGCAUCAAAAGAAAUAGUCUUGCGCUCAACCAGAAAGUCUGUAAUCAUUUUAAGGGUG	2.43
GUUAACGGUCAUAGGCCAUGGAAACUAGGAGCACCAUUCCGCUGCCAGUGAAGAAAUGAACAAAGAAAGUCUGGGCCAGGCAGGCAUCAAAAGAGAUAGUCUUGCGCUCAACCAGAAAGUCUGUAAUCAUUUUAAGGGUA	1.75
GUUAACGGUCAUAGGCCAUGGAAACUAGGAGCACCAUUCCGCUGCCAGUGAAGAAAUGAACAAAGAAAAUCUGGGCCAGGCAGGCAUCAAAAGAAAUAGUCUUGCGCUCAGCCAGAAAGUCCGUAAUCAUUUUAAGGGUA	0.01
GUUAACGGUCAUAGGCCAUGGAAACUAGGAGCACCAUUCCGCUGCCAGUGAAGAAAUGAACAAAGAAAAUCUGGGCCAGGCAGGCAUCAAAAGGAAUAGUCUUACGCUCAACCAGAAAGUCUGUAAUCAUUUUACGGGUA	0.04
GUUAACGGUCAUAGGCCAUGGAAACUAGGAGCACCAUUCCGCUGCCAGUGAAGAAAUGAACAAAGAAAAUCUGGGCCAGGCAGGCAUCAAAAGAAGUAGUCUUGCGCUCAACCAGGAAGUCUGUAAUCAUUUUAAGGGUA	1.22
GUUAACGGUCAUAGGCCAUGGAAACUAGGAGCACCAUUCCGCUGCCAGUGAAGAGAUGAACAAAGAAAAUCUGGGCCAGGCAGGCAUCAAAAGAAAUAGUCUUGCGCUCAACCUGAAAGUCUGUAAUCAUUUUAAGGGUA	0.02
GUUAACGGUCAUAGGCCAUGGAAACUAGGAGCACCAUUCCGCUGCCAGUGAAGAAAUGAACAAAGAAAAUCUGGGCCUGGCAGGCACCAAAAGAAAUAGUCUUGCGCUCAACCAGAAAGUCUGUAAUCAUUUUAAGGGUA	0.15
GUUAACGGUCAUAGGCCAUGGAAACUAGGAGCACCAUUCCGCUGCCAGUGAAGGAAUGAACAAAGAAAAUCUGGGCCAGGCAGGCAUCAAAAGAAAUAGUCUUGCGCUCAACCAGAAAGUCUGUAAUCGUUUUAAGGGUA	1.04
GUUAACGGUCAUAGGCCAUGGAAACUAGGAGCACCAUUCCGCUGCCAGUGAAGAAAUGAACAAAGAAAAUCUGGGCCAGGCAGGCAUCGAAAGGAAUAGUCUUGCGCUCAACCAGAAAGUCCGUAUUCAUUUUAAGGGUA	0.76
GUUAACGGUCAUAGGCCAUGGAAACUAGGAGCACCAUUCCGCUGCCAGUGAAGAAAUGAACAAAGAAAAUCUGGGCCAGGCAGGCAUCGAAAGAAAUAGUCUUGCGCUCAACCAGAGAGUCUGUAGUCAUUUUAAGGGUA	1.42
GUUAACGGUCAUAGGCCAUGGAAACUAGGAGCACCAUUCCGCUGCCAGUGAAGAGAUGAACCAAGAAAAUCUGGGCCAGGCAGGCAUCAAAAGAAAUAGUCUUGCGCUCAACCAGAAAGUCUGUAAUCAUUUUAAGGGUA	0.5

Variant	self-cleavage
GUUAACGGUCAUAGGCCAUGGAAACUAGGAGCACCAUUCCGCUGCCAGUGAAGAAAUGAACAAAGAAAAUCUGGGCCAGGCGGGCAUCUAAAGAAAUAGUCUUGCGCUCAGCCAGAAGGUCUGUAAUCAUUUUAAGGGUA	0
GUUAACGGUCAUAGGCCAUGGAAACUAGGAGCACCAUUCCGCUGCCAGUGAAGAAAUGAACAAAGAAAAUCUGGGCCAGGCAGGCAUCAAGAGAAAUAGACUUGCGCUCAACCAGAAAGUCUGUAAUCAUUUUAAGGGUA	0.25
GUUAACGGUCAUAGGCCAUGGAAACUAGGAGCACCAUUCCGCUGCCAGUGAAGAAAUGAUCAAAGAAAAUCUGGACCAGGCAGGCACCAAAAGAAAUAGUCAUGCGCUCAACCAGAAAGUCUGUAAACAUUUUAAGGGUA	0.06
GUUAACGGUCAUAGGCCAUGGAAACUAGGAGCACCAUUCCGCUGCCAGUGAAGAAAUGAACAAGGAAAAUCUGGGCCAGGCAGGCAUCAAAAGUAGUAGUCUUGCGCCCAACCAGAAAGUCUGUAAUCAUUUUAAGGGUA	0.02
GUUAACGGUCAUAGGCCAUGGAAACUAGGAGCACCAUUCCGCUGCCAGUGAAGAAAUGGACAAAGAAAACCUGGGCCAGGCAGGCAUCAAAAGAAAUAGUCUUGCGCUCAACCAGAAAGUCUGUAAUCAUUUUAAGGGUA	0.24
GUUAACGGUCAUAGGCCAUGGAAACUAGGAGCACCAUUCCGCUGCCAGUGAAGAAAUGAGCAAGGAAAGUCUGGGCCAGGCAGGCAUCAAAAGAAAUAGUCUUGCGCUCGACCAGAAAGUCUGUAAUCAUUUUAAGGGUA	0.07
GUUAACGGUCAUAGGCCAUGGAAACUAGGAGCACCAUUCCGCUGCCAGUGAAGAAAUGAACAAAGAAAAUCUGGGCCAGGCAGGCAUCAGAAGAAAUAGUCUUGCGCUCAACCAGAAAGUCUGUAAUCAUUUUAAGGGAA	1.06
GUUAACGGUCAUAGGCCAUGGAAACUAGGAGCACCAUUCCGCUGCCAGUGAAGAAAUGAACAAGGAAAAUCUGGGCCAGGCAGGCAUCAAAAGAAAUAGUCUUGCGCUCAACCAGAAAGUCCGUAAUCAUUUUAAGGGUA	1.68
GUUAACGGUCAUAGGCCAUGGAAACUAGGAGCACCAUUCCGCUGCCAGUGAAGAAAUGAACAAAGAAAAUCUGGGCCAGGCAGGCAUCUGAAGAAAUAGUCUUGCGCUCAACCAGAAAGUCUGUAAUCAUUUUAAGGGUA	1.8
GUUAACGGUCAUAGGCCAUGGAAACUAGGAGCACCAUUCCGCUGCCAGUGAAGAAAUGAACAAAGAGAAUCUGGGCCAGGCAGGCAUCAAAAGAAAUAGUCUUGAGCUCAACCAGAGAGUCUGUAAUCAUUUUAAGGGUA	0.03
GUUAACGGUCAUAGGCCAUGGAAACUAGGAGCACCAUUCCGCUGCCAGUGAAGGAAUGGACAAAGAGAACCUGGGCCAGGCAGGCAUCAAAAGAAAUAGUCUUGCGCUCAACCAGAAAGUCUGUAAUCAUUUUAAGGGUA	0.34
GUUAACGGUCAUAGGCCAUGGAAACUAGGAGCACCAUUCCGCUGCCAGUGAAGAAAUGAACAAAGAAAAUCUGGGCCAGGCAGGCAUCAAAAGGAAUAGUCUUGCGCUCAACCAGAAAGUCCGUAAUCAUUUUAAGGGUA	1.45
GUUAACGGUCAUAGGCCAUGGAAACUAGGAGCACCAUUCCGCUGCCAGUGAAGAGAUGAACAAAGAAGAUCUGGGCCAGGCAGGCAUCAAAAGACAUAGUCUUGCGCUCAACCAGAAAGUCUGUAGUCAUCUUAAGGGUA	0.84
GUUAACGGUCAUAGGCCAUGGAAACUAGGAGCACCAUUCCGCUGCCAGUGAAGAGAUGAACAAAGAAAAUCUGGGCCAGGCAGGCAUCAAGAGAAAUAGUCUUGCGCUCAGCCAGAAAGUCUGUAAUCAUUUUAAGGGUA	0.03
GUUAACGGUCAUAGGCCAUGGAAACUAGGAGCACCAUUCCGCUGCCAGUGAAGAAAUGAACAAAGAAAAUCUGGGCCAGGCAGGCAUCAAAAGGAAUGGUCUCGCGCUCAACCAGAAAGUCUGUAAUCAUUUUAAGGGUA	0.07
GUUAACGGUCAUAGGCCAUGGAAACUAGGAGCACCAUUCCGCUGCCAGUGAAGAAAUGUACAAAGAAAAUCUGGGCCAGGCAGGCGUCAAAAGGAAUAGUCUUGCGCUCAACCAGAAAGUCUGUAAUCAUUUUAAGGGUA	1.55
GUUAACGGUCAUAGGCCAUGGAAACUAGGAGCACCAUUCCGCUGCCAGUGAAGAGAUGAACAAAGAAAAUCCGGGCCAGGCAGGCAUCAAAAGAAAUAGUCUUGCGCUCAACCAGAAAGUCUGUAAUCAUUUUAAGGGUA	0.16
GUUAACGGUCAUAGGCCAUGGAAACUAGGAGCACCAUUCCGCUGCCAGUGAAGAAAUGAGCAAAGAAAAUCUGGGCCAGGCAGGCAUCAAAAGAAGUAGUCUUGAGCUCAACCAGAAAGUCUGUAAUCAUUUUAAGGGUA	0.05
GUUAACGGUCAUAGGCCAUGGAAACUAGGAGCACCAUUCCGCUGCCAGUGAAGAAAUGGACAAAGAAAAUCUGGGCCAGGCAGGCAUCAAAAGAAAUAGUCUUGCGCUCAACCAGAAGGUCUGUAAUCAUUUUAAGGGUA	0.45
GUUAACGGUCAUAGGCCAUGGAAACUAGGAGCACCAUUCCGCUGCCAGUGAAGAAAUGAACAAAGAAAAUCUGGGCCAGGCAGGCAUCAAAAGGAAUAGUCUUGCGCUCAACCAGAAAGUCUGUAGUCAUUUUAAGGGUA	0.28
